# The whole screen tested about 48,000 compounds, of which about 1,200 (2.5%) were called active. About 2% were inconclusive and are not listed.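 Rule for the calls: active = activation of at least 60% and not above a set upper limit (about 1 call in 100 departs from these limits); inconclusive = activation of 40% to 60%, or above that upper limit; inactive = activation under 40%.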 This is one part of the list.
# Biological target: Probable G-protein coupled receptor 32 (Homo sapiens) (UniProt O75388)
# Experiment: qHTS for Agonists of Human Resolvin D1 Receptor DRV1; note: 0% is about no effect
# Conditions: CHO-K1 GPR32 beta-arrestin PathHunter luminescence, 90 min; at 76.9 µM; stronger effect = higher value; zero percent set by DMSO-only wells
# How it was run: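 Agonism was scored as beta-arrestin recruitment to ProLink-fused GPR32 in stably transfected CHO-K1 cells, giving a chemiluminescent beta-Gal signal; compounds were incubated 90 min at 37 °C.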
# Chain of UniProt O75388 (O75388 whole entry, looked up): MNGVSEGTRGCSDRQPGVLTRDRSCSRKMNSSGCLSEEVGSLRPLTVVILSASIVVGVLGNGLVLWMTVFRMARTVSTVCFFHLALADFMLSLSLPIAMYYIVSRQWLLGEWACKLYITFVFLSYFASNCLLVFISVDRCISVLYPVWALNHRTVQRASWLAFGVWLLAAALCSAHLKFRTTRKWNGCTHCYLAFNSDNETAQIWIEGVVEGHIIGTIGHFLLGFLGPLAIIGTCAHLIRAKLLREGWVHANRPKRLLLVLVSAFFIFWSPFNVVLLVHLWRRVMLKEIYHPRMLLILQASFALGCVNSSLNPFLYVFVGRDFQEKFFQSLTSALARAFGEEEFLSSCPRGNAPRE
row,Compound,activation
1,CCSc1ncc(Cl)c(C(=O)N(Cc2ccccc2)Cc2ccco2)n1,inactive: -35%
2,O=C(CN1C(=O)CCc2cc(S(=O)(=O)N3CCOCC3)ccc21)NCc1ccccc1Cl,inactive: -24.9%
3,CCSc1nnc2c(n1)OC(c1sccc1C)N(C(C)=O)c1ccccc1-2 (stereo not drawn),inactive: 0.754%
4,CC1=C(C(=O)Nc2cc(Cl)ccc2C)C(c2ccco2)n2ncnc2N1 (stereo not drawn),inactive: -7.97%
5,COc1ccc(Cn2c(=O)c3oc4ccccc4c3n(Cc3cccc(F)c3)c2=O)cc1,inactive: -16.2%
6,CCOC(=O)C1CCCN(S(=O)(=O)c2cc3c(cc2C)NC(=O)CO3)C1 (stereo not drawn),inactive: -7.18%
7,O=C(NCc1cccc(F)c1)c1ccc2nc(N3CCCCC3)sc2c1,inactive: 8.91%
8,Cc1c(C)n(C)c2ccc(C(=O)NCCc3ccc(Cl)cc3)cc12,inactive: -23.9%
9,COC(=O)c1c(C)oc2ccc(N(C(=O)Oc3ccccc3)S(=O)(=O)c3ccc(C(C)(C)C)cc3)cc12,inactive: 6.75%
10,CCN(CC)CCNC(=O)c1ccc(NS(C)(=O)=O)cc1,inactive: -5.26%
11,O=C(NCCc1ccc(Cl)cc1)c1ccc2c(c1)N(Cc1c(F)cccc1Cl)C(=O)CS2,inactive: 7.83%
12,CCn1ccc2cc(S(=O)(=O)N3CCCN(C(=O)NCC(=O)OC)CC3)ccc21,inactive: 9.16%
13,COc1cccc(-c2cc(C(F)(F)F)n3nc(C)c(-c4ccccc4)c3n2)c1,inactive: 8.6%
14,Cc1ccccc1C(=O)NC1(C(F)(F)F)N=C(c2ccccc2)N(Cc2ccccc2)C1=O (stereo not drawn),inactive: -17.7%
15,CCCCNC(=O)CSc1nc2cc3c(cc2c(=O)n1CCCCCC(=O)NCCc1ccc(OC)c(OC)c1)OCO3,inactive: -8.27%
16,Cc1ccc2nc(N3CCC(C(=O)NCc4ccc(F)cc4)CC3)[nH]c2c1,inactive: -14.3%
17,CCc1ccccc1N(C)C(=O)c1nn(C)c2c1CSc1ccccc1-2,inactive: -10.8%
18,O=C(COc1ccccc1[N+](=O)[O-])Nc1cc(-c2nc3cc(Cl)ccc3o2)ccc1Cl,inactive: 6.92%
19,COC(=O)c1ccc(Oc2nc3c(c(=O)n(C)c(=O)n3C)n2C(C)C)cc1,inactive: -4.21%
20,Cc1cc(C)c(S(=O)(=O)NCc2csc(-c3ccccc3)n2)c(C)c1,inactive: -24.9%
21,Cc1ccc2nc(COc3cccc(NC(=O)c4cccc(Cl)c4)c3)cc(=O)n2c1,inactive: 6.96%

row,Compound,activation
1,CCC12CN3CC(C)(CN(C1)C3c1c[nH]c3ccc(OC)cc13)C2=O (stereo not drawn),inactive: -10.7%
2,Cc1ccc2cccc(NC(=O)c3ccc(C#N)cc3F)c2n1,inactive: -0.835%
3,Cc1ccc(OCC(=O)Nc2ccc3nc(SCC(=O)N4CCOCC4)sc3c2)cc1C,inactive: 0.0536%
4,CCC(Sc1nc2cc3c(cc2c(=O)n1CCCC(=O)NCc1ccc(OC)cc1)OCO3)C(=O)NCCCOC (stereo not drawn),inactive: -14.8%
5,CCOC(=O)C1CCCN(C(=O)CCS(=O)(=O)c2cc3c(cc2Cl)NC(=O)CO3)C1 (stereo not drawn),inactive: -4.25%
6,CCN(CC)C(=O)c1sc2c(c1C)c(=O)n(-c1ccc(C)c(C)c1)c(=O)n2Cc1cccc(Cl)c1,inactive: -6.41%
7,O=C1CN(C(=O)c2ccc(S(=O)(=O)N3CCCCC3)cc2)C(c2ccc(F)cc2)c2cc(Br)ccc2N1 (stereo not drawn),inactive: -19.5%
8,CC(=O)N1CCc2cc(CNS(=O)(=O)c3ccc(C(C)(C)C)cc3)ccc21,inactive: -3.8%
9,Cc1ccccc1NC(=O)Cn1c(=O)n(CCC(=O)NCc2ccc3c(c2)OCO3)c(=O)c2sccc21,inactive: -15.1%
10,Cn1ccc2c(OCC(=O)Nc3ccc([N+](=O)[O-])cc3)cccc2c1=O,inactive: 2.03%
11,CSc1ccc(CNC(=O)CN2C(=O)C3CCCCN3c3ccc(C(=O)N4CCCC4)cc32)cc1 (stereo not drawn),inactive: -32.1%
12,CCOC(=O)C1CCN(C(=O)c2ccc3c(c2)sc2nc(-c4ccc(C)cc4)cn23)CC1,inactive: -3.18%
13,FC(F)(F)c1ccc(-c2noc(-c3ccccc3Br)n2)cc1,inactive: 16%
14,CCc1ccc(NC(=O)C2CCN(S(=O)(=O)c3c(C)noc3/C=C/c3ccco3)CC2)cc1,inactive: -32.9%
15,COc1ccc(-c2nc3cc(C(C)C)ccc3o2)cc1NC(=O)c1ccc(C)c(Cl)c1,inactive: -4.76%
16,O=S(=O)(NCc1nc2cccnc2n1Cc1ccc(F)cc1)c1ccc(Cl)s1,inactive: -25.6%
17,COc1ccc(NC(=O)c2cc(S(=O)(=O)NCCC3=CCCCC3)ccc2F)cc1,inactive: 2.41%
18,COC(=O)c1cc2sc(C)cc2n1CC(=O)Nc1cccc(SC)c1,inactive: 12.9%
19,Cc1ccc(CCNC(=O)c2ccc(CS(=O)(=O)Cc3cccc(C)c3)o2)cc1,inactive: -6.33%
20,CCCCCC(=O)N(c1ccc(OCC)cc1)S(=O)(=O)c1ccc2c(c1)n(C)c(=O)n2C,inactive: -4.57%
21,COc1ccc(Cn2ccc3nc(C)c(C(=O)N4CCN(c5ccccc5F)CC4)cc3c2=O)cc1,inactive: -13.6%

row,Compound,activation
1,Cc1ccc(NC(=O)Cn2cc3c(n2)CCC(C)C3)cc1C (stereo not drawn),inactive: -7.59%
2,Cc1cccc(Cn2c(=O)n(Cc3ccc4c(c3)OCO4)c(=O)c3oc4ccccc4c32)c1,inactive: -21.1%
3,CCc1ccccc1NC(=O)c1cc2nc(-c3ccc(OC)c(OC)c3)cc(C(F)(F)F)n2n1,inactive: -3.42%
4,CCOc1ccc(CNC(=O)c2ccc3c(c2)nnn3C2CCCC2)cc1,inactive: 6.23%
5,Cc1ccc(S(=O)(=O)C(CNC(=O)Cc2ccc(Cl)cc2)c2cccs2)cc1 (stereo not drawn),inactive: -13.9%
6,CC(C)C(=O)Nc1cccc(C(=O)Nc2nnc(CC(C)(C)C)s2)c1,active: 61.7%
7,COc1ccccc1N1CCN(C(=O)Nc2cn(CC(C)C)c(=O)c3ccccc23)CC1,inactive: -15%
8,CCOCCCNC(=O)c1c(NC(=O)c2cc(=O)c3ccccc3o2)sc2c1CCC2,inactive: -18.9%
9,O=c1oc2c(CN3CCCC3)c(O)ccc2cc1-c1ccccc1,inactive: 12.3%
10,COc1cc2ccccc2cc1C(=O)Nc1ccc2oc(-c3ccc(Cl)cc3)nc2c1,inactive: -28.4%
11,CCOC(=O)c1ccc(NC(=O)Cn2ncc3c(C)n(Cc4ccccc4F)c(C)c3c2=O)cc1,inactive: -9.31%
12,COC(=O)c1ccc(NC(=O)Cn2c(=O)nc(-c3ccccc3)c3ccccc32)cc1,inactive: -10.9%
13,CCCCN(C)CC(O)Cn1cc(/C=C/C(=O)c2ccc(C)cc2)c2ccccc21 (stereo not drawn),active: 65%
14,CC(C)c1ccc(NC(=O)Nc2csc3c2CCCC3)cc1,inactive: 19.3%
15,O=C(Nc1ccc(C(=O)OCc2cc(=O)n3c4c(sc3n2)CCCC4)cc1)c1ccc(Cl)cc1,inactive: -25.9%
16,Cc1ccc2c(=O)cc(C(=O)Nc3c(C(=O)Nc4cccc(Cl)c4)oc4ccccc34)oc2c1,inactive: -9.46%
17,O=C(c1ccc(Br)s1)N(Cc1cccnc1)c1nc2ccc(F)cc2s1,inactive: -5.95%
18,CCOc1ccccc1NC(=O)CN1C(=O)COc2ccc(S(=O)(=O)N3CCCCC3)cc21,inactive: -14%
19,CCOc1cccc(NC(=O)C2CC(=O)N(C)C(=Nc3ccc(F)cc3)S2)c1 (stereo not drawn),active: 77.6%
20,Cc1ccc(N2C(=O)CSC23C(=O)N(CC(=O)NC2CCCCC2)c2ccccc23)cc1C (stereo not drawn),inactive: -32.4%
21,Cn1cc(C(c2ccccc2)c2ccc(Cl)s2)c2ccccc21 (stereo not drawn),inactive: -28.7%

row,Compound,activation
1,CCOC(=O)c1c(C)oc2ncnc(Nc3cc(Cl)ccc3OC)c12,inactive: 9.79%
2,Nc1nc(=O)n([C@@H]2O[C@H](CO)[C@@H](O)[C@@H]2F)cc1I,inactive: -10.4%
3,Cc1ccc(CNC(=O)C2CCN(S(=O)(=O)c3c(C)noc3/C=C/c3c(C)cc(C)cc3C)CC2)cc1,inactive: -5.78%
4,CSc1ncc(C(=O)NCc2ccc(C)cc2)c(-c2ccccc2)n1,inactive: 25.6%
5,Cc1ccc2nc(COc3ccccc3NC(=O)COc3ccccc3Cl)cc(=O)n2c1,inactive: -0.858%
6,COc1ccc(-c2onc(C)c2C)cc1S(=O)(=O)N1CCN(c2ccc(Cl)cc2)CC1,inactive: -5.42%
7,O=C(CSc1nc2c([nH]c3ccccc32)c(=O)n1-c1ccccc1)N1CCOCC1,inactive: -32.3%
8,CC(C)OC(=O)c1c(NC(=O)COc2cccc(Br)c2)sc2c1CCCC2,inactive: 0.576%
9,CC(CNC(=O)C1CCN(S(=O)(=O)c2ccc3c(ccn3C)c2)CC1)c1ccccc1 (stereo not drawn),inactive: -19.1%
10,CCCC(=O)c1cc(O)c(O)cc1O,inactive: -74.3%
11,CCN(CC)CCn1c(-c2ccccc2)csc1=Nc1ccccc1,active: 84.7%
12,CCCCN(CC)CCCNC(=O)C1CCCN(c2ncnc3c2nc2n3CCCCC2)C1 (stereo not drawn),inactive: -6.98%
13,COc1ccc(NC(=O)Cn2c(=O)n(Cc3ccccc3Cl)c(=O)c3cc(OC)c(OC)cc32)cc1OC,inactive: 3.5%
14,Cc1ccc(OCCn2c(-c3ccc(Br)cc3)nc3ccccc3c2=O)cc1C,inactive: -8.95%
15,O=C1CC(c2cccc(O)c2)c2cc3c(cc2N1)OCO3 (stereo not drawn),inactive: -4.45%
16,Nc1nonc1C(=O)NCCNCc1cccc(Cl)c1Cl,inactive: 20.2%
17,Cc1c(CC(=O)NCCc2ccccc2F)c(=O)oc2cc(O)c(Cl)cc12,inactive: 7.96%
18,O=C(COc1ccccc1[N+](=O)[O-])N1CCC(c2nc3ccccc3o2)CC1,inactive: -3.54%
19,CC(C)S(=O)(=O)c1oc(-c2cccs2)nc1S(=O)(=O)c1ccc(F)cc1,inactive: -14.5%
20,Cc1ccc(NC(=O)c2c(C)oc3ccc(O)c(CN4CCCCCC4)c23)cc1,inactive: 14.6%

# From PubChem BioAssay AID1346428 (National Center for Advancing Translational Sciences (NCATS), 2018)
